Laboratory results as given in publication PMC4336329 (PLoS ONE, 2015).
Hit rate of the full screen: of about 310,000 compounds, about 2,200 (0.71%) showed an effect of 50% or more. Effects have a minus sign here. The list shows a part of the results.

molecular target: human ether-à-go-go-related gene (hERG) potassium channel (human, UniProt Q12809); test: primary screen, population patch clamp on CHO cells stably expressing hERG
Sequence (Q12809 whole entry, looked up): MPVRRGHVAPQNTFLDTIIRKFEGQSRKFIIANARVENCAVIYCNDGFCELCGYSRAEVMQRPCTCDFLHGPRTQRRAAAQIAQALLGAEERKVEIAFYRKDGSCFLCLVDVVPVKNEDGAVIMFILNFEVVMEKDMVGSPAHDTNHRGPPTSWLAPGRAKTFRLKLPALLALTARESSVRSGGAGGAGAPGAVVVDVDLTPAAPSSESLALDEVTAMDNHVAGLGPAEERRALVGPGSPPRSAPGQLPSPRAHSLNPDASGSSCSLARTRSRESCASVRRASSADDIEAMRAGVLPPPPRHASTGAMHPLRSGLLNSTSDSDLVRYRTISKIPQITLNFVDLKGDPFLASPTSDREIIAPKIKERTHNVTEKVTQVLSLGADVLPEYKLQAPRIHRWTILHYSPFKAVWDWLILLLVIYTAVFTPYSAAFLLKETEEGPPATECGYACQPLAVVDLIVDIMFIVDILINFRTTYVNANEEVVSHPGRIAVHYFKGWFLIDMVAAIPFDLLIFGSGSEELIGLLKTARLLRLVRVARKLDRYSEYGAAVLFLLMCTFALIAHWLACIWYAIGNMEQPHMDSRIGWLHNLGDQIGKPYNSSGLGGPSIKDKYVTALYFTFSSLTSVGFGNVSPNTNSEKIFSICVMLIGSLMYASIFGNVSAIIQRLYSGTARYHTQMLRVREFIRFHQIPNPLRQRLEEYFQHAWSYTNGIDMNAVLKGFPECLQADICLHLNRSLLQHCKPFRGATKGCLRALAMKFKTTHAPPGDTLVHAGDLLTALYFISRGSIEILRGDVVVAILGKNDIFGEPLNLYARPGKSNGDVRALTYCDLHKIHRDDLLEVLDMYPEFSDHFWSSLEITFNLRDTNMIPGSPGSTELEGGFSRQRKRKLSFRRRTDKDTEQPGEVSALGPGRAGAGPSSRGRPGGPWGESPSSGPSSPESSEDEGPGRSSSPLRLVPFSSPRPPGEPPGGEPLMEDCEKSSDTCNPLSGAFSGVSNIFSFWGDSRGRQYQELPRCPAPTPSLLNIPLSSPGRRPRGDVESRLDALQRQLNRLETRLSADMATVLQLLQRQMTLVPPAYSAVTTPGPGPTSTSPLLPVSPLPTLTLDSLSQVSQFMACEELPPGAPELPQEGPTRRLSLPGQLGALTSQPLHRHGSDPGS

Row | Compound | hERG current change (%, negative = inhibition) at 1uM [%]
1 | CCC(CC)NC(=O)c1cccc(Oc2ccccc2)c1 | 6.84
2 | CC(C)Nc1nc(NC(C)C)nc(SCC(N)=O)n1 | 3.45
3 | O=C(NCc1cccnc1)c1nc(-c2ccccc2)n(-c2ccccc2)n1 | 9.32
4 | O=C(COC(=O)C1=Cc2ccccc2OC1)NCc1ccco1 | 17.8
5 | O=C(CNc1ccc2c(c1)OCO2)N/N=C\c1ccccc1Cl | 12
6 | CCOc1cccc2cc(C(C)=O)oc12 | 16.3
7 | CC(=O)c1nnn(-c2cccc(C#N)c2)c1C | 9.82
8 | Cc1ccc(S(=O)(=O)Nc2nccs2)cc1[N+](=O)[O-] | 16.4
9 | CN1CCC(Oc2ccc(Sc3ccccc3)cc2)CC1.Cl | -4.48
10 | COc1ccc(CNS(=O)(=O)c2ccc3c(c2)CC(C)N3C(=O)C2CC2)cc1 (stereo not shown) | 15.1
11 | CC(NC(=O)c1ccc(F)cc1)C1CC2CCC1C2 (stereo not shown) | 5.29
12 | COC(=O)c1sccc1S(=O)(=O)Nc1ccc(N2CCCCC2)cc1 | 10.2
13 | CCOC(=O)C1(Cc2ccccc2C)CCCN(Cc2cc(OC)c(O)c(OC)c2)C1 (stereo not shown) | -2.23
14 | COc1ccc(-n2nnc3c(SC(C(C)=O)C(=O)N(C)C)ncnc32)cc1 (stereo not shown) | 10.2
15 | O=C(CN1CCC(n2nnc3cc(F)ccc32)CC1)N1CCc2ccccc2C1 | -24.7
16 | CCCN1CCN(CCCNC(=O)Cn2nc(-c3ccc(Cl)cc3)ccc2=O)CC1 | -25
17 | Cc1cc(-c2ccc(/C=N/n3cnnc3)o2)c([N+](=O)[O-])cc1C | 9.45
18 | CC(=O)NO | 10.3
19 | O=C(O)c1ccc(-c2ccc(Cl)cc2Cl)o1 | -5.82
20 | Cn1c(=O)n(C)c2cc(NC(=O)COc3ccc(F)cc3F)ccc21 | 8.63
21 | O=S(=O)(Nc1ncnc2sc3c(c12)CCC3)c1ccc(Cl)s1 | 12.5
22 | CN1CCC(N(C)S(=O)(=O)c2ccc(NC(=O)COc3ccc(F)cc3)cc2)CC1 | 3.82

Row | Compound | hERG current change (%, negative = inhibition) at 1uM [%]
23 | Cc1cccc(C)c1OC1(c2ccccc2)OC(=O)c2ccccc21 (stereo not shown) | 5.98
24 | O=C(c1ccco1)c1cn(Cc2ccccc2)c2ccccc12 | 8.53
25 | O=C(O)c1ccccc1-n1ncc2c1/C(=C/c1ccc(Cl)cc1)CC2 | 22.6
26 | CN1C(=O)C(C)(C)N(C(=O)c2cccc([N+](=O)[O-])c2)c2ccccc21 | 10.8
27 | Cc1ccc(C(=O)N2c3ccccc3NC(=O)C2C)cc1 (stereo not shown) | 5.63
28 | Cc1cc(=O)n2[nH]nnc2n1 | -16.2
29 | CC1CCC2(CC1)NC(=O)N(CC(=O)N1CCN(S(=O)(=O)c3ccccc3)CC1)C2=O (stereo not shown) | 4.72
30 | Cc1ccc(C2(c3ccc(C)cc3)CC2C(=O)NC(C)C)cc1 (stereo not shown) | 13.8
31 | O=C(COc1ncnc2ccccc12)Nc1cc(S(=O)(=O)N2CCOCC2)ccc1Cl | 7.41
32 | CCn1c(SCC(=O)NC2CCCCC2)nnc1-c1cccs1 | 6.6
33 | Cc1ccc(S(=O)(=O)Nc2nc(C)cc(N/N=C/c3ccc(O)cc3)n2)cc1 | 14.1
34 | Cc1c(C(=O)OCCOC(C)C)[nH]c2c1C(=O)CC(c1ccco1)C2 (stereo not shown) | 1.06
35 | c1cncc(-c2noc(-c3ccc4ccccc4c3)n2)c1 | 16.1
36 | c1ccc2c(SCc3cn4ccccc4n3)nncc2c1 | -0.835
37 | CN(Cc1nc2c(s1)CCCC2)C(=O)CCc1nnc(-c2ccc3c(c2)OCO3)o1 | 9.88
38 | COc1ccc(S(=O)(=O)N2CCOC2CNC(=O)C(=O)NCCc2ccccc2)cc1 (stereo not shown) | 4.01
39 | O=C(CCCn1c(=O)c2ccccc2n(Cc2cccc(F)c2)c1=O)NC1CCN(Cc2ccccc2)CC1 | -21.6
40 | C/C(=N/NC(=O)Cc1cccs1)c1ccco1 | 6.93
41 | O=C(Nc1ccc(F)cc1)c1sc2cc(C(F)(F)F)cnc2c1-c1cccs1 | 7.93
42 | CC1(C)CC(=O)C(=Cc2cn(CCC#N)nc2-c2ccc(F)cc2)C(=O)C1 | 8.3
43 | CCOC(=O)C1CN(S(=O)(=O)c2ccccc2)C1 | 8.96
44 | O=C(NCc1cccs1)C1CC(O)CN1C(=O)Nc1ccccc1 (stereo not shown) | 16.6

Row | Compound | hERG current change (%, negative = inhibition) at 1uM [%]
45 | CCOC(=O)N1CCC(N2C(=O)c3ccc(C(=O)O)cc3C2=O)CC1 | 5.66
46 | Nc1cc(N2CCNCC2)c([N+](=O)[O-])cc1Cl | 12.7
47 | COc1ccc(N(CC(=O)Nc2cccc([N+](=O)[O-])c2C)S(C)(=O)=O)cc1OC | 5.09
48 | CN(C(=O)c1cc2ccccc2oc1=O)C1(C)CCS(=O)(=O)C1 (stereo not shown) | 9.53
49 | O=C(NNC(=O)c1ccccc1[N+](=O)[O-])Nc1ccc(Cl)cc1 | 16.3
50 | CC(C)Oc1ccc(C(=O)NC2CCSc3ccccc32)cc1 (stereo not shown) | 17.8
51 | O=C(Cc1cccs1)Nc1nnc(SCc2ccc(Br)cc2)s1 | 5.02
52 | Cc1ccc(S(=O)(=O)N/N=C\c2cn(CC(N)=O)c3ccccc23)cc1C | 16.6
53 | CSc1cccc(CN2CCCC(CNC(=O)c3ccco3)C2)c1 (stereo not shown) | -48.1
54 | O=C(COC(=O)/C=C/c1ccc(F)cc1)Nc1cc(C(F)(F)F)ccc1N1CCOCC1 | -14.2
55 | COC(=O)c1c(C)[nH]c(C(=O)/C=C/c2ccc(C)cc2)c1C | 7.83
56 | Cc1ccc2nc(N3CCN(C(=O)c4cccs4)CC3)c(C#N)cc2c1 | -51.3
57 | CC(=O)Nc1ccc(N(C(=O)CNC(=O)c2ccco2)C(C(=O)NC2CCCC2)c2ccco2)cc1 (stereo not shown) | 2.54
58 | O=C1CN(c2ccccc2)C(=S)N1C(=O)c1ccc(Br)cc1 | 10.7
59 | O=C(NCc1cc(C(F)(F)F)cc(C(F)(F)F)c1)C12CN(Cc3ccccc3)CC1C(c1cccc([N+](=O)[O-])c1)=NO2 (stereo not shown) | -0.505
60 | CCOC(=O)N1CCN(S(=O)(=O)c2ccc(C)cc2)C1c1ccccc1 (stereo not shown) | 1
61 | CC(C)c1ccc(NC(=O)CN2C(=O)c3ccccc3S2(=O)=O)cc1 | 8.27
62 | CCCOC(=O)c1c(N)n(Cc2cccs2)c2nc3ccccc3nc12 | -8.02
63 | CC(=O)Oc1ccc(N(C(C)=O)S(=O)(=O)c2ccc(C)cc2C)c2ccccc12 | 16.6
64 | O=C(CNC(=O)c1ccco1)Nc1ccc(OC(F)F)cc1 | 12
65 | Cc1ccc2cc(S(=O)(=O)NCCC(=O)O)ccc2c1 | 3.4
66 | C/C=C\C(=O)Nc1cccc(C2=NOC3(C2)C[C@@H](C(N)=O)N(C(=O)C2(C)CC2)C3)c1 (stereo partly shown) | 13.7

Row | Compound | hERG current change (%, negative = inhibition) at 1uM [%]
67 | COc1ccc2[nH]c(=O)c(CN(C(=O)c3ccco3)C(C)C)cc2c1 | 0.707
68 | COc1ccccc1Nc1cc(N2CCOCC2)c2nonc2c1[N+](=O)[O-] | 3.71
69 | O=C(NC1=NCCS1)c1ccc(Cl)cc1 | 18
70 | CN1c2ccc([N+](=O)[O-])cc2N(C)C1(C)c1ccccc1 (stereo not shown) | 13.1
71 | Nc1nc2n(n1)C(=O)CC(c1ccccc1[N+](=O)[O-])N2 (stereo not shown) | 18.6
72 | Cc1cc(NC(=O)CSc2ccccn2)no1 | 6.36
73 | CC(OC(=O)CCN=C1NS(=O)(=O)c2ccccc21)C(=O)Nc1ccc(N(C)C)cc1 (stereo not shown) | 6.5
74 | O=Cc1c(NCc2ccccc2Cl)c2ccccc2[nH]c1=O | 8.22
75 | Clc1ccc(-n2nnnc2-c2ccccc2)cc1Cl | 8.95
76 | CC(C)CCN1C(=O)CC(NNC(=O)c2ccc(S(=O)(=O)N3CCCC3)cc2)C1=O (stereo not shown) | 9.66
77 | CCN(CC)c1nc(N2CCN(C)CC2)nc2ccccc12.Cl | -0.0664
78 | O=C(Cc1coc(-c2ccc(F)cc2)n1)N1CCOCC1 | 6.42
79 | C#CCOCCOCCOCCNc1nc(N2CCN(C(=O)C(Cc3ccc(O)cc3)n3cc(C(N)CC(C)C)nn3)CC2)nc(N2CCN(C(=O)C(Cc3ccc(O)cc3)n3cc(C(N)C(C)CC)nn3)CC2)n1.Cl (stereo not shown) | 10.2
80 | CCc1ccc2c(c1)[C@]1(C(=O)N2)[C@@H]2C(=O)N(Cc3ccccc3)C(=O)[C@@H]2[C@@H]2CCCN21 | 14.5
81 | O=C1NC2(CCCCCC2)C(=O)N1Cc1ccc(Cl)cc1Cl | 9.34
82 | CC(C(=O)NCc1ccco1)n1ccc2cc(S(=O)(=O)N3CCCCC3)ccc21 (stereo not shown) | 12.2
83 | O=C(c1ccc(Cl)c(S(=O)(=O)N2CCOCC2)c1)N1CCCCC1 | 11.1
84 | CNC(=S)NC1CC2CCCC(C1)N2Cc1ccco1 (stereo not shown) | 11.1
85 | Cc1nc2ncnn2c(C)c1CCC(=O)N1CCN(c2ccccn2)CC1 | -9.92
86 | CCOc1cc(/C=C2/C(=N)N3OC(C)=CC3=NC2=O)ccc1OC | 11.2
87 | COc1ccc(OC)c(C2NC(=S)NC(C)=C2C(=O)Nc2ccccn2)c1 (stereo not shown) | 2.16
88 | O=c1cc(CN2CCN(C/C=C/c3ccccc3)CC2)c2cc(O)c(-c3ccccc3)cc2o1 | 12.8
